Laboratory results as given in the supplement of paper PMC12355420.
Counter-ions that a name gives are not always drawn. Some of the results follow. Single values are uncertain, as repeats are few or missing.

These compounds were tested on HeLa VPS33A reporter cells (assay: relative cell viability (CellMask signal) vs DMSO (fraction of DMSO); HeLa model of a glycosaminoglycan (GAG) storage disease; KI is knock-in and KO knock-out; SDC1 is syndecan 1; higher = less cytotoxic). Details: 50 µM; 24 h.
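Further: primary screen of an FDA-approved drug library in HeLa reporter cells in 96-well format, CellMask signal normalized to DMSO-treated wells set as 1, under 0.5 deemed highly cytotoxic.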

**Q.** `O=c1[nH]c(=O)n([C@H]2C[C@H](O)[C@@H](CO)O2)cc1F` [Floxuridine] was tested. Which relative cell viability did it give?
**A.** 1.15

**Q.** `CCCN1CCCC[C@H]1C(=O)Nc1c(C)cccc1C` [Ropivacaine hydrochloride monohydrate] was tested. Which relative cell viability did it give?
**A.** 1.02

**Q.** With `O=C(OCc1ccccc1)c1ccccc1` [Benzyl benzoate] as the compound, how does the relative cell viability read?
**A.** 1.01

**Q.** For `Cc1cc2c(cc1S(N)(=O)=O)S(=O)(=O)CCC2` [Meticrane], which relative cell viability is on record?
**A.** 1.1

**Q.** For `Cc1cn[nH]c1` [Fomepizole], which relative cell viability is on record?
**A.** 1.13

**Q.** `NC(=O)C[C@H](N)C(=O)O` [L-Asparagine] was tested. Which relative cell viability did it give?
**A.** 1

**Q.** For `COc1cc(C(=O)O)ccc1O` [Vanillic acid], which relative cell viability is on record?
**A.** 1.11

**Q.** With `CCCc1nn(C)c2c(=O)[nH]c(-c3cc(S(=O)(=O)N4CCN(C)CC4)ccc3OCC)nc12` [Sildenafil] as the compound, how does the relative cell viability read?
**A.** 1.1

**Q.** How did the relative cell viability turn out when `Nc1ccn([C@H]2CC[C@@H](CO)O2)c(=O)n1` [Zalcitabine] was run?
**A.** 1.05

**Q.** How did the relative cell viability turn out when `CC(=O)NCCCS(=O)(=O)O` [Acamprosate calcium] was run?
**A.** 1.17

**Q.** `Cc1cc(=O)n(-c2ccccc2)n1C` [Antipyrine] was tested. Which relative cell viability did it give?
**A.** 1.11

**Q.** How did the relative cell viability turn out when `CC[C@@H]1C(=O)OC[C@@H]1Cc1cncn1C` [Pilocarpine HCl] was run?
**A.** 0.902

**Q.** How did the relative cell viability turn out when `O=C(CCc1ccc(O)cc1)c1c(O)cc(O)cc1O[C@@H]1OC(CO)[C@@H](O)[C@@H](O)C1O` (some centres undefined) [Phloridzin] was run?
**A.** 1.02

**Q.** Which relative cell viability does the source give for `COc1ccc2c(c1OC)C(=O)O[C@@H]2[C@H]1c2c(cc3c(c2OC)OCO3)CCN1C` [Noscapine HCl] here?
**A.** 0.756

**Q.** For `COc1ccc2c3c1O[C@H]1C[C@@H](O)C=C[C@@]31CCN(C)C2` [Galanthamine], which relative cell viability is on record?
**A.** 1.42

**Q.** Which relative cell viability does the source give for `C/C1=C2N=C(/C=C3N=C(/C(C)=C4\[N-]C(C(CC(N)=O)C4(C)CCC(=O)NCC(C)OP(=O)([O-])OC4C(CO)OC(n5cnc6cc(C)c(C)cc65)C4O)C4(C)N=C1C(CCC(N)=O)C4(C)CC(N)=O)C(CCC(N)=O)C\3(C)C)C(CCC(N)=O)C/2(C)CC(N)=O.[CH3-].[Co+3]` (centres undefined) [Methylcobalamin] here?
**A.** 1.01

**Q.** How did the relative cell viability turn out when `O=C1[C@@H]2[C@H]3CC[C@H](C3)[C@@H]2C(=O)N1C[C@@H]1CCCC[C@H]1CN1CCN(c2nsc3ccccc23)CC1` [Lurasidone HCl] was run?
**A.** 1.09

**Q.** With `C[C@H](O)[C@H](O)[C@H]1CNc2nc(N)[nH]c(=O)c2N1` [tetrahydro-L-Biopterin (hydrochloride)] as the compound, how does the relative cell viability read?
**A.** 0.948

**Q.** How did the relative cell viability turn out when `O=C(/C=C/c1ccc(O)c(O)c1)O[C@H](Cc1ccc(O)c(O)c1)C(=O)O` [Rosmarinic acid] was run?
**A.** 1.02

**Q.** How did the relative cell viability turn out when `CC(=O)Nc1nnc(S(N)(=O)=O)s1` [Acetazolamide] was run?
**A.** 1.12

**Q.** How did the relative cell viability turn out when `CC(C)(C)NC(=O)N[C@H](C(=O)N1C[C@H]2[C@@H]([C@H]1C(=O)NC(CC1CCC1)C(=O)C(N)=O)C2(C)C)C(C)(C)C` (some centres undefined) [Boceprevir] was run?
**A.** 0.862

**Q.** With `NC[C@@H]1O[C@H](O[C@H]2[C@@H](O)[C@H](O[C@@H]3[C@@H](O)[C@H](N)C[C@H](N)[C@H]3O[C@H]3O[C@H](CO)[C@@H](O)[C@H](O)[C@H]3N)O[C@@H]2CO)[C@H](N)[C@@H](O)[C@@H]1O` [Paromomycin Sulfate] as the compound, how does the relative cell viability read?
**A.** 0.892

**Q.** How did the relative cell viability turn out when `Nc1c(CC(=O)O)cccc1C(=O)c1ccccc1` [Amfenac Sodium Monohydrate] was run?
**A.** 1.15

**Q.** Which relative cell viability does the source give for `C[N+](C)(CCOc1ccccc1)Cc1ccccc1.O=C([O-])c1cc2ccccc2cc1O` [Bephenium Hydroxynaphthoate] here?
**A.** 1.28

**Q.** `CCCCCCCCCCCCCCCC(=O)O` [Palmitic acid] was tested. Which relative cell viability did it give?
**A.** 0.957

**Q.** With `OC[C@H]1O[C@H](OCC2O[C@@H](O)[C@H](O)[C@@H](O)[C@@H]2O)[C@H](O)[C@@H](O)[C@H]1O` (some centres undefined) [Melibiose] as the compound, how does the relative cell viability read?
**A.** 1.08

**Q.** With `Cc1ccc(Nc2nccc(N(C)c3ccc4c(C)n(C)nc4c3)n2)cc1S(N)(=O)=O` as the compound, how does the relative cell viability read?
**A.** 1.09

**Q.** How did the relative cell viability turn out when `CCCCS(=O)(=O)N[C@@H](Cc1ccc(OCCCCC2CCNCC2)cc1)C(=O)O` [Tirofiban hydrochloride monohydrate] was run?
**A.** 1.23

**Q.** For `OCCOCCN1CCN(C2=Nc3ccccc3Sc3ccccc32)CC1` [Quetiapine], which relative cell viability is on record?
**A.** 0.999

**Q.** With `Oc1ccc([C@H]2COc3cc(O)ccc3C2)cc1` [Equol] as the compound, how does the relative cell viability read?
**A.** 1.32

**Q.** Which relative cell viability does the source give for `C[C@]12C=CC(=O)C=C1CC[C@@H]1[C@@H]2[C@@H](O)C[C@@]2(C)[C@H]1CC[C@]2(O)C(=O)CO` [Prednisolone] here?
**A.** 1.03

**Q.** With `CC(C)n1c(/C=C/C(O)CC(O)CC(=O)O)c(-c2ccc(F)cc2)c2ccccc21` (centres undefined) [Fluvastatin Sodium] as the compound, how does the relative cell viability read?
**A.** 0.679

**Q.** How did the relative cell viability turn out when `CCc1c2c(nc3ccc(OC(=O)N4CCC(N5CCCCC5)CC4)cc13)-c1cc3c(c(=O)n1C2)COC(=O)[C@]3(O)CC` [Irinotecan] was run?
**A.** 0.965

**Q.** How did the relative cell viability turn out when `CC(=O)Nc1ccccc1` [Acetanilide] was run?
**A.** 0.958

**Q.** How did the relative cell viability turn out when `O=C1Cc2cc(CCN3CCN(c4nsc5ccccc45)CC3)c(Cl)cc2N1` [Ziprasidone HCl] was run?
**A.** 0.994

**Q.** How did the relative cell viability turn out when `Cn1cncc1[C@@](N)(c1ccc(Cl)cc1)c1ccc2c(c1)c(-c1cccc(Cl)c1)cc(=O)n2C` [Tipifarnib (Zarnestra)] was run?
**A.** 0.747

**Q.** How did the relative cell viability turn out when `CCCNC(=O)NS(=O)(=O)c1ccc(Cl)cc1` [Chlorpropamide] was run?
**A.** 1.06

**Q.** How did the relative cell viability turn out when `COC(=O)[C@@H]1CC2=CC(=O)CC[C@]2(C)[C@@]23O[C@@H]2C[C@@]2(C)[C@@H](CC[C@@]24CCC(=O)O4)[C@H]13` [Epleremone] was run?
**A.** 1.25

**Q.** With `NC[C@H]1O[C@H](O[C@H]2[C@H](O)[C@@H](O[C@H]3O[C@H](CO)[C@@H](O)[C@H](N)[C@H]3O)[C@H](N)C[C@@H]2N)[C@H](O)[C@@H](O)[C@@H]1O` [Kanamycin Sulfate] as the compound, how does the relative cell viability read?
**A.** 1.36
